# Data from PubChem BioAssay AID1476 (National Center for Advancing Translational Sciences (NCATS), 2009).
# Several values for one entry are separate records, joined by “and”; a condition that tells them apart may be missing. Equal values may be shown once. Screen size: about 200,000 compounds; about 4,500 (2.2%) were called active. The shares of active, inactive and inconclusive entries below differ from those in the screen. Calls come from the whole dose curve; as a rule, active = well fitted inhibition curve with a large enough effect; inconclusive = small, poorly fitted or top-dose-only effect, or effect the other way; inactive = flat fitted curve, though single readings scatter. Where the call is inconclusive, the potency comes from a doubtful curve fit.
# Target: Cruzipain (Trypanosoma cruzi) (UniProt P25779)
# Assay: qHTS Assay for Promiscuous and Specific Inhibitors of Cruzain (without detergent); note: nearly all actives have a fitted effect of over 40% in size
# Conditions: purified cruzain, Z-FR-AMC fluorescence, no detergent
# Procedure: Cruzain is a cysteine protease from the tropical parasite Trypanosoma cruzi. Dual qHTS experiment was performed against the NCGC compound collection in order to 1) identify novel inhibitors of the enzyme and 2) profile the compound collection for promiscuous inhibitors operating via colloidal aggregation (by performing detergent-free and detergent-containing comparison screens). Cruzain was assayed by the use of fluorogenic coumarin-based substrate Z-FR-AMC: proteolytic cleavage releases AMC, whose fluorescence is measured at 360 nm excitation and 450 nm emission. Purified cruzain was supplied by the labs of Prof. James McKerrow and Brian Shoichet, UC San Francisco.
# This assay had 0.00005% Triton X-100 concentration. See also releated assay "qHTS Assay for Promiscuous and Specific Inhibitors of Cruzain (with detergent)" with 0.01% Triton X-100.
# See following references for additional details:
# Assay Provider: Shoichet, Brian; University of California, San Fancisco
# Screening Center PI: Austin, C.P.
# Screening Center: NIH Chemical Genomics Center [NCGC]
# Buffer: 100 mM Sodium Acetate, pH 5.5, 5 mM DTT, Triton X-100 concentration: 0.01%.
# Buffer in columns 3 and 4 as negative control (no enzyme).
# Substrate solution: 2 uM final concentration of Z-FR-AMC (catalog number I-1160, Bachem) dispensed throughout the plate.
# Enzyme: 1.5 nM Cruzain final concentration in columns 1, 2, 5-48. Column 1 is neutral (100% activity). Column 2 contained titration of covalent inhibitor K11777, starting concentration 1 mM, then 1:2 dilution in duplicate).
# Three uL of enzyme or buffer were dispensed to 1536-well Greiner black solid bottom plates. Compounds and controls (23 nL) were transferred via Kalypsys PinTool. The plates were incubated for 15 min at room temperature, and then 1 uL of substrate solution was added to start the reaction. The plates were immediately transferred to and read 4 times every 30 seconds for 2 min on ViewLux High-throughput CCD imager (Perkin-Elmer) using 360 nm excitation and 450 nm emission fluorescence protocol. The fluorescence intensity difference between the third and the first time points (time lapse of 60 seconds) was used to compute reaction progress.
# Potency is the fitted concentration of half-maximal effect; tags give direction and shape of the fitted curve.
# Chain of UniProt P25779 (P25779 whole entry, looked up): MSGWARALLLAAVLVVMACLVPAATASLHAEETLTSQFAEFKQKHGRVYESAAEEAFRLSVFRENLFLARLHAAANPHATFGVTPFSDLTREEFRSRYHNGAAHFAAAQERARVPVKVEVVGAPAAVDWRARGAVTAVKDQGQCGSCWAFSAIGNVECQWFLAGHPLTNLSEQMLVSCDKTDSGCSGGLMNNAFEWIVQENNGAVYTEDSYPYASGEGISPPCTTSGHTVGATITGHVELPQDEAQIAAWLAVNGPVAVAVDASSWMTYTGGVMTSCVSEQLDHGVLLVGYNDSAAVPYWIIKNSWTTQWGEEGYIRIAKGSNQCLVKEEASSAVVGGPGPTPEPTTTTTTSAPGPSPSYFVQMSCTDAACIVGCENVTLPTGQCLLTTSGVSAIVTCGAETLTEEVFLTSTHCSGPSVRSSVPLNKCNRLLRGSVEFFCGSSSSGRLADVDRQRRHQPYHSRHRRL
Compound,"max response, negative = inhibition",Potency
Cn1c(=O)n(CCc2ccccc2)c(=O)c2c1nc1n2CCN1c1ccc(Cl)cc1,inactive: -1.63%,
CC(=O)c1cn(CC(=O)Nc2ccccc2)c2ccccc12,,"inconclusive: 12.6 µM [inhibitor, single point]"
CC(C)c1cc(C(=O)Nc2cc(Br)ccc2O)no1,,"inconclusive: 31.6 µM [inhibitor, single point]"
c1cnc2c(-c3nccc4c3[nH]c3ccccc34)cccc2c1,inactive: -20.9%,
CC1=C(C(=O)OCc2ccccc2)C(c2ccc(Cl)cc2)NC(=O)N1CCCCCC(=O)O (stereo not given),,"inconclusive: 39.8 µM [activator, single point]"
CSc1cccc(NC(=O)Cn2nnc(C(=O)NCCc3ccccc3)c2N)c1,,"inconclusive: 39.8 µM [inhibitor, single point]"
COc1ccc(/C=N/Nc2ccccc2)cc1Cn1nc(C)c([N+](=O)[O-])c1C,,active: 12.6 µM
COc1ccc(OC)c(/C=N/NC(=O)CCc2ccc(O)c(O)c2)c1,,"inconclusive: 20 µM [inhibitor, single point]"
Cc1cc(Cl)ccc1NC(=O)CN1C(=O)C(=O)c2ccccc21,,"inconclusive: 39.8 µM [activator, single point]"
COc1cc(-c2nn3c(-c4ccccc4)nnc3s2)cc(OC)c1OC,,"inconclusive: 20 µM [activator, single point]"
CC(/C=C/C=C/c1ccccc1)=N/NC(=O)CNc1ccccc1C,,"inconclusive: 39.8 µM [inhibitor, single point]"
COc1cccc(C(=O)Nc2cc(C(=O)NCCc3ccccc3)ccc2Cl)c1,inactive: 1.04%,
CCC(=O)N1CCc2cc(OC)c(OC)cc2C1COc1ccc(C(=O)OC)cc1 (stereo not given),,"inconclusive: 31.6 µM [activator, single point]"
Cc1ccc(NC(=O)Cc2ccc(NC(=O)N3CCCCc4ccccc43)cc2)cc1,inactive: 16.9%,
COc1cccc(Cn2cc(S(=O)(=O)c3ccc(C)cc3)c(=O)c3cc4c(cc32)OCO4)c1,,"inconclusive: 20 µM [inhibitor, partial curve, poor fit]"
Cc1ccc2nc(N/C(N)=N/S(=O)(=O)c3ccc([N+](=O)[O-])cc3)nc(C)c2c1,,"inconclusive: 25.1 µM [inhibitor, single point]"
Cc1cccc(C)c1N1CCN(c2ccc3nnc(C(F)(F)F)n3n2)CC1,,"inconclusive: 25.1 µM [activator, single point]"
O=C(Nc1nonc1-c1ccc(Br)cc1)c1ccco1,inactive: -10.4%,
CCOC(=O)c1cc2ccc(OC(=O)c3ccco3)cc2oc1=O,,"inconclusive: 10 µM [activator, single point]"
CCCN(CCC)S(=O)(=O)c1ccc(C(=O)Nc2nnc(-c3cccc(OC)c3)o2)cc1,,"inconclusive: 39.8 µM [inhibitor, single point]"
CCOC(=O)Cc1ccc(NC(=O)N2CC(CC)Oc3ccccc32)cc1 (stereo not given),inactive: 24.4%,
CS(=O)(=O)N(CC(=O)N1CCN(c2ccccc2)CC1)c1ccc(Cl)c(C(F)(F)F)c1,,"inconclusive: 31.6 µM [activator, single point]"

Compound,"max response, negative = inhibition",Potency
Nc1c(C(=O)NCCCc2ccccc2)c2nc3ccccc3nc2n1Cc1cccs1,,active: 6.31 µM
COc1cc(/C=N/NC(N)=S)cc(Br)c1OCc1ccccc1F,,active: 0.199 µM
CC(C)c1ccc(C(C(=O)NC2CCCC2)N(C(=O)CNC(=O)c2ccco2)c2cccnc2)cc1 (stereo not given),,"inconclusive: 39.8 µM [activator, single point]"
Cc1cccc(N2CCN(C(=O)c3ccc(Cl)c(S(=O)(=O)N4CCc5ccccc5C4)c3)CC2)c1C,,active: 10 µM
CC(Oc1ccc(Cl)cc1Cl)C(=O)N(Cc1ccco1)C1CCS(=O)(=O)C1 (stereo not given),,"inconclusive: 31.6 µM [activator, single point]"
Cc1ccc(C)c(N2CCN(C(=O)C3CCCN(S(=O)(=O)c4c(C)[nH]c(=O)[nH]c4=O)C3)CC2)c1 (stereo not given),,"inconclusive: 39.8 µM [activator, single point]"
Cc1cc(C)cc(N2CCn3c2nc2c3c(=O)n(CCc3ccccc3)c(=O)n2C)c1,,"inconclusive: 31.6 µM [activator, single point]"
CCCCSc1nc2ccc(Nc3nc(N4CCOCC4)nc(N4CCOCC4)n3)cc2s1,,"inconclusive: 15.8 µM [activator, partial curve]"
CC(C)(C)C1CCc2c(sc(NC(=O)c3ccncc3)c2C(=O)Nc2ccccc2Cl)C1 (stereo not given),inactive: 5.76%,
COc1ccc(NC(=O)N2CCN(c3cc(-c4noc(C)n4)ccc3C)CC2)c(OC)c1,,"inconclusive: 39.8 µM [activator, single point]"
COc1cccc(C(=O)n2nc(-c3ccco3)nc2NCc2cccs2)c1,inactive: -0.865%,
Cc1ccc2nc(SC(C(=O)c3ccccc3)c3ccccc3)nc(C)c2c1 (stereo not given),,"inconclusive: 31.6 µM [inhibitor, single point]"
CCCCC/C=C\C[C@@H]1O[C@H]1/C=C/C(O)C/C=C\CCCC(=O)O (stereo not given in full),inactive: -5.37%,
COc1ccc(C(=O)CCN(C)C)c2ccccc12,,"inconclusive: 3.16 µM [inhibitor, partial curve]"
C=CCOc1ccc(/C=N/NC(=O)CN(c2cc(Cl)ccc2OC)S(=O)(=O)c2ccc(C)c([N+](=O)[O-])c2)cc1,,"inconclusive: 20 µM [inhibitor, partial curve, poor fit]"
CC1Cc2nc(SCC(=O)c3ccccc3)n(Cc3ccccc3)c(=O)c2S1 (stereo not given),,"inconclusive: 31.6 µM [inhibitor, single point]"
COc1ccc(Br)cc1CNC(=O)c1ccc2c(c1)nc1n2CCCCC1,inactive: -5.1%,
O=C1/C(=C\c2cccnc2)CN(Cc2ccccc2)C/C1=C\c1cccnc1,,"inconclusive: 25.1 µM [activator, partial curve]"
O=C(Nc1cccc(C(=O)N2CCN(c3ccccc3)CC2)c1)c1nsc2ccccc12,,"inconclusive: 39.8 µM [inhibitor, single point]"
CCc1ccc(C2=C(C)C(N3CCC(C(=O)Nc4ccc(F)cc4)CC3)=NS2(=O)=O)cc1,,"inconclusive: 39.8 µM [inhibitor, single point]"
O=C(Nc1ccc2nc(SCC(=O)N3CCCc4ccccc43)sc2c1)c1ccccc1F,,"inconclusive: 39.8 µM [inhibitor, single point]"
CCc1ccc2oc(C(=O)Nc3cc(Cl)ccc3OC)cc(=O)c2c1,inactive: -5.28%,

Compound,"max response, negative = inhibition",Potency
Cc1cccc(NC(=O)CN2C(=O)S/C(=C\C(=O)Nc3ccc(Cl)cc3)C2=O)c1,,active: 12.6 µM
COCCn1c(C(=O)N2CCCC2)cc2c1C[C@H]1CN(C(=O)c3ccccc3)[C@@](Cc3ccc(F)cc3)(C(=O)OC)[C@@H]21,,"inconclusive: 12.6 µM [activator, partial curve] and inconclusive: 5.01 µM [activator, full curve]"
CCCCc1c(C)nn(-c2nnc3c4ccccc4n(CC)c3n2)c1C,,"inconclusive: 31.6 µM [activator, single point]"
c1ccc(-c2csc(Nc3nc(N4CCOCC4)nc(N4CCOCC4)n3)n2)cc1,,"inconclusive: 15.8 µM [activator, partial curve]"
Cc1cc(C)cc(N(C(=O)Cc2cccs2)C(C(=O)NC2CCCCC2)c2ccccn2)c1 (stereo not given),inactive: 3.76%,
O=C(N/N=C1/CC(c2ccccc2)Oc2ccccc21)C1CC1 (stereo not given),,"inconclusive: 31.6 µM [inhibitor, single point]"
N#Cc1cccc(-c2cc(-n3ccnc3)ncn2)c1,inactive: -0.897%,
O=C1N/C(=N/NC(=O)c2cccc3ccccc23)S/C1=C\c1ccccc1OCc1ccccc1,,"inconclusive: 3.98 µM [inhibitor, single point]"
COc1cccc(C2CC(=O)Nc3c2c(=O)[nH]c2ncnn32)c1OC (stereo not given),inactive: 12.4%,
Cc1cccc(N(CC(=O)Nc2ccccc2-c2ccccc2)S(=O)(=O)c2ccccc2)c1C,,"inconclusive: 39.8 µM [inhibitor, single point]"
COc1ccccc1N1CCN(c2ccc(=O)n(CC(=O)O)n2)CC1,inactive: -2.69%,
Cc1ccc2c(c1)cc(C(=O)NCc1ccc(F)cc1)n2C,inactive: -11.9%,
CCOc1cc2[nH]c(=O)n(Cc3cccc(OC)c3)c(=O)c2cc1OCC,,"inconclusive: 39.8 µM [activator, single point]"
COc1cc2c(cc1OC)C(c1ccc(F)cc1)N(c1ccccc1)C(=O)C2 (stereo not given),inactive: 1.74%,
Cc1cccc(N=C2NN=C(c3ccc4c(c3)OCCO4)CS2)c1,,active: 15.8 µM
Cc1ccccc1NC(=O)c1c(C)oc2ccc(O)c(CN3CCCC(C)C3)c12 (stereo not given),inactive: -1.98%,
CCn1c(C)cc(/C=C2\NC(=O)N(Cc3ccc(Cl)cc3)C2=O)c1C,,"inconclusive: 25.1 µM [inhibitor, single point]"
COc1ccccc1NC(=O)c1ccc2[nH]c(C)cc(=O)c2c1,inactive: 4.13%,
Cc1ccc(NC(=S)N(Cc2cccs2)Cc2cc3cc(C)ccc3[nH]c2=O)cc1,,active: 15.8 µM
COc1cc([C@H]2c3cc4c(cc3[C@@H](O[C@H]3O[C@H]5CO[C@@H](C)O[C@H]5[C@@H](O)[C@@H]3O)[C@@H]3COC(=O)[C@H]23)OCO4)cc(OC)c1O,inactive: -7.46%,
Cc1ccc(N2CC(C(=O)Nc3nnc(SCC(=O)Nc4cc(C)on4)s3)CC2=O)cc1 (stereo not given),,active: 7.94 µM
